Values joined by “and” are separate entries in the source; they are usually repeats but may differ in a detail not shown here. Equal entries are not always repeated. Inconclusive means that the source gave no clear call. Such entries were picked first, then a sample of the others. For part of these data: Where the call is inconclusive, the potency comes from a doubtful curve fit. A structure can be active in one record and inactive in another. Active and inactive are the calls of the source. Calls come from the whole dose curve; as a rule, active = well fitted curve in the direction sought with a large enough effect in the repeat runs; inconclusive = weak or mixed curves; inactive = no such curve, though single readings can be large; an effect the other way counts as inactive or inconclusive.
Legend:
[1] = Human pregnane X receptor (PXR) small molecule agonists, qHTS cell viability counter screen (AID 1346977); note: nearly all actives have a fitted effect of over 50% in size; note: potency is the fitted concentration of half-maximal effect
Outline: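 In each well, the PXR reporter HepG2 line was checked for viability: CellTiter-Fluor reagent added 23hr post-dosing, fluorescence read after 1hr incubation at 37C.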

[2] = target: Nuclear receptor subfamily 1 group I member 2 (Homo sapiens) (UniProt O75469); assay: Human pregnane X receptor (PXR) small molecule agonists, qHTS assay (AID 1346982); note: nearly all actives have a fitted effect of over 35% in size; note: potency is the fitted concentration of half-maximal effect
Outline: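 Luminescence (ONE-Glo, 30 min RT) after 24 hr compound exposure of PXR-Luc HepG2 cells; cells rested 5 hr post-plating in 5% charcoal-stripped FBS medium.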

[3] = target: Cytochrome P450 2C9 (Homo sapiens) (UniProt P11712); assay: Cytochrome P450 Family 2 Subfamily C Member 9 (CYP2C9) small molecule antagonists: luciferase reporter qHTS assay (AID 1671198); note: nearly all actives have a fitted effect of over 50% in size; note: potency is the fitted concentration of half-maximal effect
Chain of UniProt P11712 (P11712 whole entry, looked up): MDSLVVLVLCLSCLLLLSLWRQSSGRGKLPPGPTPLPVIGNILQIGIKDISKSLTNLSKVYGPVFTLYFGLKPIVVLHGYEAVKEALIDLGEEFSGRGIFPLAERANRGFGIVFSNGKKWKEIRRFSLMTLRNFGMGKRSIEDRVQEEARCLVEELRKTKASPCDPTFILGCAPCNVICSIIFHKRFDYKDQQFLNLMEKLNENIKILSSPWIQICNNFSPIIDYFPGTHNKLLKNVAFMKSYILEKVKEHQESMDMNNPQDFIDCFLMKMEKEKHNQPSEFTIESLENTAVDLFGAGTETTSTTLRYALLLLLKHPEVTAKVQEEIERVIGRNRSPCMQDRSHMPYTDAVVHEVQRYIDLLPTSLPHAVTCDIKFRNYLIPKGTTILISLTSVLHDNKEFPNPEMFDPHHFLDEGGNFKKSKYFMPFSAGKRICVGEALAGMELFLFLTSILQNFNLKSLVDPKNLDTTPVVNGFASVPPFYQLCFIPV
Outline: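 CYP2C9 activity was measured with a P450-Glo proluciferin substrate. Enzyme–substrate mix was held with compound for 10 min at room temperature, then NADPH regeneration solution was added for 1 h at 37C. Luciferin product was read as luminescence.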

[4] = target: Cytochrome P450 1A2 (Homo sapiens) (UniProt P05177); assay: Cytochrome P450 Family 1 Subfamily A Member 2 (CYP1A2) small molecule antagonists: luciferase reporter qHTS assay (AID 1671199); note: nearly all actives have a fitted effect of over 50% in size; note: potency is the fitted concentration of half-maximal effect
Chain of UniProt P05177 (P05177 whole entry, looked up): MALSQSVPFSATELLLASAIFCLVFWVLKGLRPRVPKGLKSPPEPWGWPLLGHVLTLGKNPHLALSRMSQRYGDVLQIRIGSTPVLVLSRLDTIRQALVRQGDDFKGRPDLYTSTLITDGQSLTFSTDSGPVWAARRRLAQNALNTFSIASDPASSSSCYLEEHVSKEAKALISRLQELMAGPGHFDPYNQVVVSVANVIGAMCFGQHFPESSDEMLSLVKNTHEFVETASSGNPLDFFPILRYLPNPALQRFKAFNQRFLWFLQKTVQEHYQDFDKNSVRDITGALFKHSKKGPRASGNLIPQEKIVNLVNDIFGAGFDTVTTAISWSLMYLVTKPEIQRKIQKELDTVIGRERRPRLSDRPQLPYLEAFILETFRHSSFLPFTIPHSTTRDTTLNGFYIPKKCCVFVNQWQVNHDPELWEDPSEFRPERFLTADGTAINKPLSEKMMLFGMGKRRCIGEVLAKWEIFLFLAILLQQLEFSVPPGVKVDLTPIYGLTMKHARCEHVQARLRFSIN
Outline: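 Signal from luciferin formed by CYP1A2 from a proluciferin substrate is read as luminescence, expressed in relative luminescence units. Compounds sit with enzyme 10 min, NADPH-driven reaction runs 1 h, all at room temperature.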

[5] = target: Nuclear receptor subfamily 1 group I member 2 (Homo sapiens) (UniProt O75469); assay: CYP3A4 induction through human pregnane X receptor (PXR) by small molecules, qHTS assay (AID 1346984); note: potency is the fitted concentration of half-maximal effect; nearly all actives have a fitted effect of over 40% in size
Outline: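 DPX-2 reporter cells; 24h cpd, 37C; Luciferin-IPA 3uM final x3h; One-Glo 30 min RT; lumi read.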

[6] = target: Nuclear receptor subfamily 1 group I member 2 (Homo sapiens) (UniProt O75469); assay: Human pregnane X receptor (PXR) activation by small molecules, qHTS assay (AID 1346985); note: potency is the fitted concentration of half-maximal effect; nearly all actives have a fitted effect of over 40% in size
Outline: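 DPX-2 cells (HepG2 co-transfected with a PXR response element and a CYP3A4-promoter luciferase construct) were seeded at 2,000 per well, rested 5 hr at 37C, then exposed to DMSO-dissolved compounds for 24 hr. Activation was read as luciferase luminescence.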

[7] = target: Cytochrome P450 2C19 (Homo sapiens) (UniProt P33261); assay: Cytochrome P450 Family 2 Subfamily C Member 19 (CYP2C19) small molecule antagonists: luciferase reporter qHTS assay (AID 1671197); note: potency is the fitted concentration of half-maximal effect; nearly all actives have a fitted effect of over 65% in size
Chain of UniProt P33261 (P33261 whole entry, looked up): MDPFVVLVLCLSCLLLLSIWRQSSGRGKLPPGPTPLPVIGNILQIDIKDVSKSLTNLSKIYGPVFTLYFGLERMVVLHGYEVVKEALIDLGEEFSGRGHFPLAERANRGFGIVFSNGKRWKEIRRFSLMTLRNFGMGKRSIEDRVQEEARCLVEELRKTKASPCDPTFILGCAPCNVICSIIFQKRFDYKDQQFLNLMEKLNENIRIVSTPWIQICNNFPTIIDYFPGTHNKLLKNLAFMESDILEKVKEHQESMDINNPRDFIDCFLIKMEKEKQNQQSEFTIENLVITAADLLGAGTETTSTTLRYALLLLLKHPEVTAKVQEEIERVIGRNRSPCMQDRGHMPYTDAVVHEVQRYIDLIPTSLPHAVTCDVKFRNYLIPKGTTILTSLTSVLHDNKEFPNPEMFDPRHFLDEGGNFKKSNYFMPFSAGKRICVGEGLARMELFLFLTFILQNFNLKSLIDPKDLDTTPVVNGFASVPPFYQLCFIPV
Outline: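 Compounds were tested on CYP2C19 activity via proluciferin conversion to luciferin. The 37C, 1 h reaction followed NADPH addition; detection reagent stopped it.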

[8] = Caspase-3/7 induction in HepG2 cells by small molecules, qHTS cell viability counter screen (AID 1346981); note: potency is the fitted concentration of half-maximal effect; nearly all actives have a fitted effect of over 30% in size
Outline: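 Counter screen for cytotoxicity: HepG2 exposed 16 hr to compounds, then CellTiter-Fluor viability signal (fluorescence, 1 hr reagent incubation).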

[9] = Caspase-3/7 induction in CHO-K1 cells by small molecules, qHTS assay (AID 1346980); note: nearly all actives have a fitted effect of over 15% in size
Outline: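 Wild-type cells were seeded at 1,500 per well and settled 5 hr at 37 C, 5% CO2, then exposed to DMSO-dissolved compounds for 17 hr. Caspase-Glo 3/7 reagent was added, and luminescence was read after 30min at room temperature.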

[10] = target: Cytochrome P450 2D6 (Homo sapiens) (UniProt P10635); assay: Cytochrome P450 Family 2 Subfamily D Member 6 (CYP2D6) small molecule antagonists: luciferase reporter qHTS assay (AID 1671196); note: nearly all actives have a fitted effect of over 50% in size; note: potency is the fitted concentration of half-maximal effect
Chain of UniProt P10635 (P10635 whole entry, looked up): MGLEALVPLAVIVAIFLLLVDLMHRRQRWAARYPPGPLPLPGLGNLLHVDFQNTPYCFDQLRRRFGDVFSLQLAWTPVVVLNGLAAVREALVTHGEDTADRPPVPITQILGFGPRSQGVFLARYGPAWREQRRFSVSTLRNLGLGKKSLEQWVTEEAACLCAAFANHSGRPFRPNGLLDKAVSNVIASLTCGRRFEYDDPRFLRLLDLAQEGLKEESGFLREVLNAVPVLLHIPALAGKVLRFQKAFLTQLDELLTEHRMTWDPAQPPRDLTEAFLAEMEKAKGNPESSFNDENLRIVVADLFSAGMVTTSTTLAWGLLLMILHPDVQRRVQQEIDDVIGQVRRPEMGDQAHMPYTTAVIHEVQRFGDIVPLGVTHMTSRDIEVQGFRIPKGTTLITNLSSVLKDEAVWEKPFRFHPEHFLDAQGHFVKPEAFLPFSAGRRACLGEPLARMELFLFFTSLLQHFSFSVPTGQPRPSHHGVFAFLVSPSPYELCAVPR
Outline: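 Inhibition of CYP2D6 was gauged by loss of luminescence, since light produced tracks the luciferin generated from a proluciferin substrate. A 10 min room-temperature preincubation preceded 1 h NADPH-supported turnover.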

[11] = target: Nuclear receptor subfamily 1 group I member 2 (Rattus norvegicus) (UniProt Q9R1A7); assay: Rat pregnane X receptor (rPXR) activation by small molecules, qHTS assay (AID 1346983); conditions: rPXR luciferase reporter cells, One-Glo luminescence, 24 h; max activation: stronger effect = higher value; note: potency is the fitted concentration of half-maximal effect; nearly all actives have a fitted effect of over 20% in size
Chain of UniProt Q9R1A7 (Q9R1A7 whole entry, looked up): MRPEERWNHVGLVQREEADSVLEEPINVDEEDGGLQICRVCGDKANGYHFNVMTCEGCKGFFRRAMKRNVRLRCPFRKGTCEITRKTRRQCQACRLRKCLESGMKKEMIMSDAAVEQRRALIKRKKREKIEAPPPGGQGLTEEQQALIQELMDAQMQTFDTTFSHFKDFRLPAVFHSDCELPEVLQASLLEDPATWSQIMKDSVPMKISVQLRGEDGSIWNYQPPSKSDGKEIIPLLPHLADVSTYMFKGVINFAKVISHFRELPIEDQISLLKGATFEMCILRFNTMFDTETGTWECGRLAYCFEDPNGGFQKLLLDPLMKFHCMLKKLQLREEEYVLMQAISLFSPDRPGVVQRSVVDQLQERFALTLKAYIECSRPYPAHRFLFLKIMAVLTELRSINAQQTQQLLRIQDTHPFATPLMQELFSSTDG
Outline: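 Cell-based rPXR luciferase reporter assay, 2,000 cells per well, rested 5hr at 37 C before compound addition in DMSO, then 24 hr at 37 C. One-Glo reagent was added and luminescence read after 30 min at room temperature.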

[12] = target: Voltage-gated inwardly rectifying potassium channel KCNH2 (Homo sapiens) (UniProt Q12809); assay: Human Ether-a-go-go-Related Gene (hERG) channel small molecule antagonists: fluorescence cell-based qHTS assay (AID 1671200); note: nearly all actives have a fitted effect of over 50% in size; note: potency is the fitted concentration of half-maximal effect
Chain of UniProt Q12809 (Q12809 whole entry, looked up): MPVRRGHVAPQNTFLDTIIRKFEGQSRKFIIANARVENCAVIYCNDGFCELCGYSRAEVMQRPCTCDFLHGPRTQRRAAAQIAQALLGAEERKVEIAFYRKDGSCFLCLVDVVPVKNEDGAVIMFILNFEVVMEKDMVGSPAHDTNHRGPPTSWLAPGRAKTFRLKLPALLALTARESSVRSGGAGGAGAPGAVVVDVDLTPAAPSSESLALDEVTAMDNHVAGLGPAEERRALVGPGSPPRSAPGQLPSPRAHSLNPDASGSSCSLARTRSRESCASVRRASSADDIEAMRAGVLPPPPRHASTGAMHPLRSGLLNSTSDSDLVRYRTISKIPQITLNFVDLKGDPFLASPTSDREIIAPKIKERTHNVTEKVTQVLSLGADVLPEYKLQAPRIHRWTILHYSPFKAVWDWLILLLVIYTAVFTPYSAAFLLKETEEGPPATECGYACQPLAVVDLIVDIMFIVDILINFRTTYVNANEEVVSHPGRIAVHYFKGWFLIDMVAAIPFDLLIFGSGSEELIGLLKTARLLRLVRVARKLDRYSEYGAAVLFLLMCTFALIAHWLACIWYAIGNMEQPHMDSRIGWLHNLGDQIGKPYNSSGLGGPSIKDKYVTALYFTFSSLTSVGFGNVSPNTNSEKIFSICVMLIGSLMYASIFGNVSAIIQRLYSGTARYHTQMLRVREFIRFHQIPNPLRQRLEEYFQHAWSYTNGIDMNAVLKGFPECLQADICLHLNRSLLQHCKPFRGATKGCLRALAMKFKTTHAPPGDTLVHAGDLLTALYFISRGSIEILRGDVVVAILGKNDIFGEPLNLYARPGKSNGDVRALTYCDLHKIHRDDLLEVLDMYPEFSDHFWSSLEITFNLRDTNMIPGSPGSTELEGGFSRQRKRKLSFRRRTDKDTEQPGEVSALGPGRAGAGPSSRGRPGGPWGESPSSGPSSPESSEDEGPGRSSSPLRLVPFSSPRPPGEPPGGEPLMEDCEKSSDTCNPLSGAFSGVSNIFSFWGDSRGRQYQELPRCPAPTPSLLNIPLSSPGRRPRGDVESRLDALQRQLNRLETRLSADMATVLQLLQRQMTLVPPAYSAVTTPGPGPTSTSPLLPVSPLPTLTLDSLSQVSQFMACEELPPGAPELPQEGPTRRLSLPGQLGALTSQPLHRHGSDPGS
Outline: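 In this thallium-flux screen, overnight-cultured U2OS cells bearing the channel are dye-loaded in darkness for an hour, rested 10 min at room temperature, and then monitored kinetically at 480/540 nm for two minutes post-stimulus.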
Tags give direction and shape of the fitted curve.

With `CCSCC` the Potency [1] was inconclusive: 72.5 µM [cytotoxic, single point], the Potency [2] was inconclusive: 72.5 µM [activator, single point] and the Potency [3] was “inactive”. The Potency [4] was “inactive”.
With `CCN(CC)CCOC(=O)C(Cc1cccc2ccccc12)CC1CCCO1` (stereo not given) the Potency [1] was inconclusive: 26.6 µM [cytotoxic, partial curve], the Potency [2] was inconclusive: 10.6 µM [activator, partial curve] and the Potency [5] was inconclusive: 17.8 µM [activator, partial curve, poor fit]. The Potency [6] was inconclusive: 11.2 µM [activator, single point], the Potency [7] was inconclusive: 7.76 µM [inhibitor] and the Potency [4] was inconclusive: 14.4 µM [inhibitor, full curve, poor fit].
For `COc1ccccc1N1CCN(CC(O)COc2cccc3ccccc23)CC1` (stereo not given), the Potency [1] was inconclusive: 33.5 µM [cytotoxic, single point] and the Potency [8] was inconclusive: 29.8 µM [cytotoxic, partial curve].
For `Cc1cc(C)c(O)c(C)c1`, the Potency [1] was inconclusive: 39.8 µM [cytotoxic, single point], the Potency [9] was “inactive” and the Potency [2] was active: 30.6 µM. The Potency [7] was inconclusive: 89.4 µM [inhibitor, single point].
For `CN(C)CCOC(c1ccccc1)c1ccccc1` (tested in a mixture with another compound), the Potency [1] was inconclusive: 30.9 µM [cytotoxic, partial curve] and the Potency [8] was inconclusive: 69.1 µM [cytotoxic, partial curve, poor fit].
With `Nc1ccc(O)c([N+](=O)[O-])c1` the Potency [1] was inconclusive: 44.7 µM [cytotoxic, partial curve], the Potency [8] was active: 61.1 µM and the Potency [10] was inconclusive: 32.6 µM [inhibitor, partial curve]. For the same molecule, the Potency [3] was active: 25 µM and the Potency [4] was active: 48.5 µM.
With `c1ccc(C(O[C@@H]2CCCN(CCc3ccc4c(c3)OCO4)C2)c2ccccc2)cc1` the Potency [1] was active: 61.1 µM, the Potency [8] was inconclusive: 61.1 µM [cytotoxic, single point] and the Potency [10] was active: 2.52 µM.
In the case of `O=S(=O)(Oc1ccc(Cl)cc1Cl)c1ccccc1`, the Potency [1] is reported as inconclusive: 68.6 µM [rising, partial curve, poor fit], the Potency [8] is reported as inconclusive: 19.3 µM [rising, partial curve] and the Potency [10] is reported as active: 64.4 µM and active: 63.3 µM. For the same molecule, the Potency [7] was active: 811 nM and active: 894 nM.
In the case of `CCOC(=O)CC`, the Potency [1] is reported as “inactive” and the Potency [2] is reported as “inactive”.
For `C=C[C@H]1CN2CC[C@H]1C[C@@H]2[C@@H](O)c1ccnc2ccc(OC)cc12`, the Potency [1] was inconclusive: 30.1 µM [cytotoxic, partial curve] and the Potency [8] was inconclusive: 67.5 µM [cytotoxic, single point].
With `Nc1cc(S(=O)(=O)O)cc2cc(S(=O)(=O)O)cc(O)c12` the Potency [1] was inconclusive: 48.3 µM [cytotoxic, partial curve] and inconclusive: 48.6 µM [cytotoxic, partial curve], the Potency [8] was inconclusive: 60.8 µM [cytotoxic, single point] and active: 54.5 µM and the Potency [10] was inconclusive: 9.99 µM [inhibitor, partial curve] and active: 35.6 µM. The Potency [3] was inconclusive: 22.4 µM [inhibitor, partial curve].
In the case of `CC(=O)O[C@]1(C(C)=O)CC[C@H]2[C@@H]3C=C(Cl)C4=CC(=O)CC[C@]4(C)[C@H]3CC[C@@]21C`, the Potency [1] is reported as inconclusive: 68.5 µM [cytotoxic, single point], the Potency [8] is reported as active: 61 µM and the Potency [2] is reported as active: 68.5 µM and inactive. For the same molecule, the Potency [11] was inconclusive: 4.47 µM [activator, full curve, poor fit], the Potency [10] was inconclusive: 63.2 µM [inhibitor, partial curve] and inactive and the Potency [12] was inconclusive: 54.8 µM [inhibitor, single point] and inactive.
For `Cc1ccc2c(c1)C(=O)OC2=O`, the Potency [1] was “inactive”, the Potency [2] was inconclusive: 30.6 µM [activator, partial curve] and the Potency [7] was inconclusive: 89.3 µM [inhibitor, single point]. The Potency [3] was inconclusive: 89.3 µM [inhibitor, partial curve, poor fit].
With `Clc1ccc(Nc2nnc(Cc3ccncc3)c3ccccc23)cc1` the Potency [1] was inconclusive: 33.5 µM [cytotoxic], the Potency [8] was inconclusive: 33.5 µM [cytotoxic, single point] and the Potency [6] was active: 3.98 µM. For the same molecule, the Potency [3] was active: 1.55 µM.
With `Oc1ccc2ccccc2c1N=Nc1ccccc1` the Potency [1] was active: 27.3 µM and active: 30.6 µM, the Potency [8] was active: 48.5 µM and active: 27.3 µM and the Potency [4] was active: 356 nM and active: 2.52 µM. For the same molecule, the Potency [12] was inconclusive: 21.9 µM [inhibitor, partial curve].
For `Cc1ccc(Cl)c(N)c1Cl`, the Potency [1] was inconclusive: 54.5 µM [cytotoxic, partial curve, poor fit], the Potency [2] was inconclusive: 24.3 µM [activator, partial curve, poor fit] and the Potency [10] was inconclusive: 39.9 µM [inhibitor, partial curve, poor fit]. The Potency [4] was inconclusive: 20 µM [inhibitor, partial curve].

From PubChem BioAssay (Tox21)
